Data as given in the RNAGym collection of RNA variant scans (doi:10.7554/elife.90254).
Read counts are not given, so values of variants with three or more changes are uncertain.

B1: LINE1-mini (parent)
chain: GGCAGAGCUCAACACAGCGUGGCAAAGUGGCUGUGGCUAGACUGCC

Variants of: B1
Assay: self-cleavage, relative activity (ratio to wild type); higher = more cleavage; in vitro, sequencing; the parent is a self-cleaving ribozyme
With A24C C31G U34A G40C C46U the self-cleavage was 0.02.
For A6G A14U A24G G36U A41G, the self-cleavage was 0.05.
For C8A G21U C23A U34G, the self-cleavage was 0.05.
In the case of A11C G21A A26C, the self-cleavage is reported as 0.05.
Work on G1C G5A C15G U38C yielded a self-cleavage of 0.
A12U C13A G17U U20A G22U G40A gave a self-cleavage of 0.03.
A4U U20G G21A G22C C23A A25U C37G C46A gave a self-cleavage of 0.
In the case of C8G U9A C18U A39C, the self-cleavage is reported as 0.21.
C8A G29A C31A showed a self-cleavage of 0.12.
G1C A14G G30A A39U gave a self-cleavage of 0.02.
With C10A A11G C13G G17U A25U C42G the self-cleavage was 0.02.
A16G C31U A41G gave a self-cleavage of 0.03.
G7C C8A A41G showed a self-cleavage of 0.11.
Variant C3G A6U C10U G19A G40U has a self-cleavage of 0.02.
Work on C23A C31U A41C G44U yielded a self-cleavage of 0.01.
C15G C23G G40A showed a self-cleavage of 0.
Work on A4C A26U G35C G40U yielded a self-cleavage of 0.09.
A26U G30C C45U gave a self-cleavage of 2.48.
In the case of G7C U9G C45U, the self-cleavage is reported as 0.06.
G19A G22U A26C C37U showed a self-cleavage of 0.01.
With G7U G30A G36A the self-cleavage was 0.06.
With G2U A4G U43G the self-cleavage was 0.15.
A11U A12C C18G gave a self-cleavage of 0.03.
Variant A14C C23A G44U has a self-cleavage of 0.12.
Work on C15A U38G C42G yielded a self-cleavage of 0.03.
C10U C15U G29C G44C showed a self-cleavage of 0.2.
For G35U C37A U38C C42A, the self-cleavage was 0.02.
Variant A4G A11C C15A A16G C18A A25G G27U has a self-cleavage of 0.
G27C U32C G33U G36A C37U G44U gave a self-cleavage of 0.02.
In the case of G1U C18U G21C U43A, the self-cleavage is reported as 0.05.
G5A A12C G30U U43A showed a self-cleavage of 0.02.
For C3A C18A C37U, the self-cleavage was 0.07.
In the case of A4U C13A G22A A24U A26G G33A C45A, the self-cleavage is reported as 0.07.
Work on U9A G21A A24U A26U C37A yielded a self-cleavage of 0.57.
For C8G C10U U38G A41G C42U, the self-cleavage was 0.04.
U9C A14C G21A G44A showed a self-cleavage of 0.02.
Work on C13G G17A A25G G29U yielded a self-cleavage of 0.
In the case of A12C G21A G35U, the self-cleavage is reported as 0.02.
With U20A G29A G35A A39G the self-cleavage was 0.05.
C3U C42A U43A showed a self-cleavage of 0.09.
Work on G7A G33A G35A G36A yielded a self-cleavage of 0.03.
Work on C3U C13U C18A G27C yielded a self-cleavage of 0.05.
Work on A16C G35A G40U G44A yielded a self-cleavage of 0.03.
With C18U C23U G29A G44U the self-cleavage was 0.26.
Work on A16U G17U U34C yielded a self-cleavage of 0.07.
U20G G29A G35C gave a self-cleavage of 0.08.
Variant C3U C8A G27U U32C has a self-cleavage of 0.35.
In the case of A11C G40U C46A, the self-cleavage is reported as 0.
In the case of C8A U38C G40U C46G, the self-cleavage is reported as 0.06.
For C3U C8G U32G, the self-cleavage was 0.02.
With G2C A12C G30U C37U the self-cleavage was 0.01.
With G7U A24C A41U the self-cleavage was 0.22.
C18U U20A C42A gave a self-cleavage of 0.07.
With C13U G17C C31A the self-cleavage was 0.02.
Variant U9G G22U G36C G40U has a self-cleavage of 0.13.
G29C G30C U43A showed a self-cleavage of 0.
Variant G1U G7A C10G G22A has a self-cleavage of 0.03.
With C10A C23U A25C G29U C31U C45G the self-cleavage was 0.
For G22U G30U C45A, the self-cleavage was 0.32.
For G1A G7C C13A C23U, the self-cleavage was 1.06.
With A11U A25G A41G the self-cleavage was 0.01.
For G7U A26G G40A, the self-cleavage was 0.08.
For C10A U34A G36A C42A U43A G44U, the self-cleavage was 0.05.
G2A A16U A26C showed a self-cleavage of 0.02.
With G5C C8G A11U G35C the self-cleavage was 0.03.
Work on C10U U34A A39C yielded a self-cleavage of 0.03.
C3A A6U U9A C42U showed a self-cleavage of 0.71.
Work on A4G A11G U28A yielded a self-cleavage of 0.01.
C10A C31G U32G A41U C42G showed a self-cleavage of 0.01.
In the case of U9A C18A G40C, the self-cleavage is reported as 0.02.
In the case of U28C G29C C37A G40A, the self-cleavage is reported as 0.01.
With G1C G35A C42A the self-cleavage was 0.03.
For A4G C8G C13A G22U G27A C37G A41U, the self-cleavage was 0.07.
C10A G29A C45U showed a self-cleavage of 0.05.
G1C C13G G27A U32A showed a self-cleavage of 0.01.
For C3G G5A C23A G36U, the self-cleavage was 1.16.
For A4G A11C A16G G30A C42A G44A, the self-cleavage was 0.
For C3G C8G G33U, the self-cleavage was 0.06.
Work on C3A G36A C45A yielded a self-cleavage of 0.08.
G1U A14G C18G A26U showed a self-cleavage of 0.03.
Work on A6G C10U C45A yielded a self-cleavage of 0.04.
With A6C U9C U38C the self-cleavage was 0.02.
In the case of G5U A11G G19C G29A, the self-cleavage is reported as 0.02.
In the case of C15G G17C A25C G40A, the self-cleavage is reported as 0.
In the case of G1C G7A G40A, the self-cleavage is reported as 0.04.
In the case of C10A A11U A12U G19C A26G G27A G30U, the self-cleavage is reported as 0.02.
With C23U G27A U43C the self-cleavage was 0.25.
For C3G A25U C37A C46U, the self-cleavage was 0.12.
For A4G U9G A16G A26G, the self-cleavage was 0.04.
G22A A24G A25G C37A showed a self-cleavage of 0.03.
Variant C10A C13U C18G G40A G44A has a self-cleavage of 0.04.
With G2C C8U A11G G40A G44U the self-cleavage was 0.02.
Variant C15A A16G G36U G40C has a self-cleavage of 0.01.
U9G G17U G36C gave a self-cleavage of 0.03.
C3A G36A C46G showed a self-cleavage of 0.38.
Variant C13U A16C A24G C45U has a self-cleavage of 0.03.
For G17C G21A A26C G36C G40A U43G, the self-cleavage was 0.08.
Variant U9A C10G A24U U28C has a self-cleavage of 0.03.
Variant C15G A24G C37G has a self-cleavage of 0.02.
With G17U U34C A39G A41U U43C the self-cleavage was 0.01.
A25U G30A G33A gave a self-cleavage of 0.06.
For C3A A24C A26U G27A, the self-cleavage was 0.25.
G19A A26U C31U gave a self-cleavage of 0.26.
With G2A G5A C13G C23U G36A G44U the self-cleavage was 0.78.
For A24C C42A C45G, the self-cleavage was 0.08.
C13G G29U G30C G33C showed a self-cleavage of 0.21.
In the case of G7U A25G U34G, the self-cleavage is reported as 0.04.
Variant G5U A24G G36A C37A has a self-cleavage of 0.05.
Work on G17C G27U G35U yielded a self-cleavage of 0.09.
With C13G U20C A26G A39C the self-cleavage was 0.04.
A16C C18A A24U G33A gave a self-cleavage of 0.16.
In the case of A39U A41U G44U, the self-cleavage is reported as 0.09.
For C8U C18A A26C, the self-cleavage was 0.2.
In the case of A16U G17U G33C U34G, the self-cleavage is reported as 0.02.
For A14G A39C G44A, the self-cleavage was 0.01.
Variant C10U G21U A39C has a self-cleavage of 0.16.
G27U G29U G33U showed a self-cleavage of 0.07.
G17U U28G G30A gave a self-cleavage of 0.31.
With C3U G7A C10A C18A A41C C45A the self-cleavage was 0.
In the case of A6G A11G U34A, the self-cleavage is reported as 0.01.
With U20C G27C C31A the self-cleavage was 0.08.
For C3A G19C A25C, the self-cleavage was 0.08.
G17U G19C U38A showed a self-cleavage of 0.34.
C3A C45U C46A gave a self-cleavage of 0.44.
G19C A41G C45U showed a self-cleavage of 0.04.
Variant C10U G19C G44U has a self-cleavage of 0.02.
For C8A C15A G22A U28C C37U, the self-cleavage was 0.13.
Work on A24G G33A U43C yielded a self-cleavage of 0.07.
Work on C3A A24G C42U yielded a self-cleavage of 0.08.
With G21A A24C G30C C37A G44U C46A the self-cleavage was 0.02.
In the case of G19C C31A U34C G36C, the self-cleavage is reported as 0.04.
For C3G G5U G40A, the self-cleavage was 0.08.
C8U C23A A26U G36C showed a self-cleavage of 0.04.
In the case of G17A U28G G33A G35C C37U, the self-cleavage is reported as 0.01.
For C15U G17A G19U A24C, the self-cleavage was 0.02.
G1U C8G G29U gave a self-cleavage of 0.02.
In the case of G5U A12C U32C, the self-cleavage is reported as 0.
U9C A14U U20C G35C showed a self-cleavage of 0.1.
A11C A12G G21C A25G showed a self-cleavage of 0.02.
Work on C3G C45G C46G yielded a self-cleavage of 0.77.
Work on A6C G21U A24G yielded a self-cleavage of 0.78.
In the case of G19U A26C A41U, the self-cleavage is reported as 0.49.
In the case of C8U G30U G36A A41G, the self-cleavage is reported as 0.03.
Work on G7A A14C G30A yielded a self-cleavage of 0.13.
C3G G7U U20A A25C C37U gave a self-cleavage of 0.04.
With A11U G17U U20C G27C G30U the self-cleavage was 0.02.
Variant A6C G17A G29A has a self-cleavage of 0.35.
Variant A11G A16C U20A A24U has a self-cleavage of 0.
G5A C10U G35U G40U gave a self-cleavage of 0.13.
Work on C3A A12U C31U yielded a self-cleavage of 0.06.
In the case of G1U G7C C31U, the self-cleavage is reported as 0.04.
For G2U G5U A24U, the self-cleavage was 0.01.
Work on U38A C45A C46A yielded a self-cleavage of 0.23.
Variant G2C G29U G30C C42A U43A has a self-cleavage of 0.
With A4U A6G G7C C15G U38G the self-cleavage was 0.01.
U28G C42A G44C showed a self-cleavage of 0.14.
G2C A24G G40A showed a self-cleavage of 0.01.
C3U U32C C42U showed a self-cleavage of 0.05.
Variant C3G C15A G27A G40U has a self-cleavage of 0.02.
Work on C23G U38C A39U A41C yielded a self-cleavage of 0.05.
For G17C G29U C45G C46U, the self-cleavage was 0.01.
In the case of A4C G19A G22C C46U, the self-cleavage is reported as 0.17.
With A4G C13A U20C G30C G35U the self-cleavage was 0.42.
Work on A4G A12G C45U yielded a self-cleavage of 0.06.
For G7C U32C C37A, the self-cleavage was 0.02.
For A14C G17U G30U, the self-cleavage was 0.05.
For G5U C13A G29U U38A, the self-cleavage was 0.1.
